From paper PMC7472837 (Molecular cell, 2020)

B1: Recombinant BAX I133A (natural protein)
chain: not shown
B2: Recombinant BAX R134E/R145E (natural protein)
chain: not shown
B3: Recombinant BAXΔC ([…]) R134E (domain or fragment)
chain: not shown

Target: the molecule itself
Test: SEC

Binding result, binds:
B1
B2
B3
